pIC50: −log10 of the molar value. Where two headings read alike, the source gives them in different places.

In one data set the test system is COX enzymes. Particulars: cited from earlier work.
Another data set has as its system prostate cancer. Particulars: ref [30]; cited from earlier work.
The conditions of data set [1]: ref [29]; cited from earlier work.
In data set [2] the target is T1, Rac1 (Homo sapiens, UniProt P63000). As to the kind of experiment: GLISA cellular assay of activated Rac1 (Pak-binding plate assay). The class given is cell-based. As for the experimental part: (§1) (A) GLISA measures cellular effects of small molecules on Rac1. […] Equal cell lysate protein was assayed for activated Rac1 using a commercial, plate based Pak-binding assay according to manufacturer's instructions (GLISA, Cytoskeleton, Inc.). […] Rac1 crystal structure used to dock molecules via FRED (OpenEye).
(§2) GLISA is extensively used for measuring EGF-stimulated Rac and Cdc42 activation in Swiss 3T3 cells in the presence and absence of test compounds. […] GLISAs in are highly specific, quantitative, can be performed with small sample sizes (<50 μg of cell lysate per assay, compared to 1-10 mg required for conventional PAK binding assay) and have excellent reproducibility. To assess the inhibitory effects of the small molecules in Table 2, preincubate cells for 15-60 min (times that establish detection of acute GTPase inhibition) with varying concentrations of each compound as described. NSC23766 serves as a positive control for Rac1 inhibition. […] Activated RhoA is also measured by GLISA following lysophosphatidic acid stimulation as an additional specificity control as needed.

The next data set deals with T2, Cdc42 (Homo sapiens, UniProt P60953).
T2 construct: endogenous in cells; host or cells: OVCA429 / OVCA433 and/or Swiss 3T3 cells
As to the kind of experiment: GLISA cellular assay of activated Cdc42. As to conditions: cells +/- EGF. The class given is cell-based. As for the experimental part: as §1, §2

Data set [3] deals with ovarian tumor cells. Description: Ovarian tumor cell proliferation. The class given is cell-based, human. As to conditions: data not shown.
The conditions of data set [4]: rodents; cited from earlier work.
For data set [5] the following is noted: humans; cited from earlier work.
Data set [6] relates to SKOV3ip cells. As to the kind of experiment: Ovarian tumor cell migration, modified Boyden chambers.
For data set [7], the system named is ovarian tumor cells. Description: Planned ex vivo, 3D and organotypic studies of MCA formation, migration and invasion. Format: cell-based, human. Particulars: prediction for planned studies. As for the experimental part: To more closely approximate adhesive events that occur during intraperitoneal dissemination in vivo uses organotypic cultures. Organotypic cultures and 3DCI gels are generated as previously described [35; 128-131]. Briefly, type I collagen gels with embedded fibroblasts are overlaid with a confluent layer of mesothelial cells (LP9) in 24 well plates or transwells containing a porous filter. Alternatively, 3DCI gels are evaluated in the absence of mesothelial cells to mimic mesothelial cell retraction and exposure of the underlying FCM. Adhesion and invasion of cells labeled using membrane permeable fluorescent dyes (CMFDA, Invitrogen) are enumerated using fluorescent microscopy [128; 131]. Expansive growth in 3D collagen is measured after cell growth for 6-10 d using morphometric analysis of proliferative aggregate dimensions and quantitation of the number and size invasive projections, as described previously.
The studies focus on the impact of identified small molecules on distinct mechanisms of metastasis in ovarian cancer (FIG. 7) and obtain detailed information adhesive events (cell:cell for MCAs or cell:mesothelium ex vivo and in vivo), invasion, growth and survival. […]

Data set [8] concerns the target T3, Rac1 (Mus musculus, UniProt P63001).
T3 construct: host or cells: mouse kidney
Particulars: 10 mg/kg/day, cited from earlier work.

Data set [9] relates to OVCA 429 cells. Description: Multicellular aggregate (MCA) formation, hanging drop. As to conditions: FIG. 4C, 100 μM, 24 h.
The test system of data set [10] is OVCA 429 cells. Description: Ovarian tumor cell migration, modified Boyden chambers. Particulars: OVCA 429, FIG. 4A.
The conditions of data set [11]: mouse, in vivo, po, 1 mg/kg; cited from earlier work.
The subject of another data set is breast cancer. As to conditions: presurgical administration; cited from earlier work.
Data set [12] addresses T1, Rac1. As to conditions: purified protein.
Data set [13] deals with SKOV3ip cells. Description: Intraperitoneal xenograft of GFP-tagged SKOV3ip cells in athymic nude mice. As to conditions: oral in dough, 2 weeks of tumor growth.
Another data set has as its system Rho GTPase. As to conditions: ref [15]; cited from earlier work.
In a further data set the test system is ovarian metastasis. Particulars: xenograft model, ref [15]; cited from earlier work.
Setting [14] is: GLISA, cells +/- 10 ng/ml EGF for 2 min.

T2 sequence (P60953 whole entry): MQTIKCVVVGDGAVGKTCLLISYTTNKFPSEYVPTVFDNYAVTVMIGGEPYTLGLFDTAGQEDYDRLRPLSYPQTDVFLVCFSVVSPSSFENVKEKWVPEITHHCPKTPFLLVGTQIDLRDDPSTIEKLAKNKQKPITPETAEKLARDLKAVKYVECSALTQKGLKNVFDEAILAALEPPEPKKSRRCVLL

For the molecule `CCc1cccc2c3c([nH]c12)[C@@](CC)(CC(=O)O)OCC3` [R-etodolac], in the data set with COX enzymes, the “COX inhibitory activity” value was “no COX inhibitory activity”. Further, the “tumor development and metastasis” value with prostate cancer was “retard tumor development and metastasis”.
Regarding `COc1ccc2cc([C@H](C)C(=O)O)ccc2c1` [S-naproxen], in the data set with COX enzymes (ref [22]), the “inhibitory activity against COX enzymes” value is 50-70%. Further, the epimerization entry in data set [1] is “not significantly subject to epimerization”.
Consider `O=C(c1ccccc1)c1ccc2n1CC[C@H]2C(=O)O` [R-ketorolac], for which the “inhibition of Rac1 GTPase activity” value on Rac1 [2] (setting [14]) is given as “inhibit”. The “inhibition of Cdc42 GTPase activity” value at Cdc42 is “inhibit”. Further, in the data set on ovarian tumor cells [3], the “inhibition of ovarian tumor cell proliferation” value is “little inhibition”. The “interconversion between R- and S-forms” value in data set [4] is “little interconversion”; in [5], “none detectable”. Further, in the data set with SKOV3ip cells [6] (24 h), the “inhibition of ovarian tumor cell migration” value was “inhibits”. For the same molecule, in the data set on SKOV3ip cells [6] (read-out: IC50 ovarian tumor cell migration, FIG. 4B), the pIC50 was around 5.00.
As for `CCN(CC)CCCC(C)Nc1nc(C)cc(Nc2ccc3nc(C)cc(N)c3c2)n1` (stereo not drawn) [NSC23766], the “inhibition of ovarian tumor cell proliferation” value with ovarian tumor cells [3] is “inhibit”. For the same molecule, the “MCA formation, cell migration and cell invasion (predicted)” value in the data set on ovarian tumor cells [7] is listed as “will decrease”. Further, the organ toxicity entry on Rac1 [8] (6 weeks continuous dosing) is reported as “without apparent evidence of organ toxicity”. Further, on Rac1 [8] (osmotic minipump), the “Rac1 activity in target tissue (kidney)” value was “reduced Rac1 activity”. The “inhibition of MCA formation” value with OVCA 429 cells [9] is “inhibit”. In addition, the “inhibition of ovarian tumor cell migration” value in the data set with OVCA 429 cells [10] is “inhibit”.
For the molecule `O=C(c1ccccc1)c1ccc2n1CC[C@@H]2C(=O)O` [S-ketorolac], in the data set with ovarian tumor cells [3], the “inhibition of ovarian tumor cell proliferation” value is “little inhibition”. In addition, the GI toxicity entry in data set [11] was “dose dependent and low, but detectable”.
Take `O=C(c1ccccc1)c1ccc2n1CCC2C(=O)O` (racemic) [ketorolac]: the cancer recurrence rates entry with breast cancer is “reduced cancer recurrence rates”.
`COc1ccc2cc(CC(=O)O)ccc2c1` [6-MNA, 6-methoxy-2-naphthalene acetic acid]: the “inhibition of ovarian tumor cell proliferation” value with ovarian tumor cells [3] is “little effect”. Besides, the “inhibition of MCA formation” value in the data set with OVCA 429 cells [9] is given as “little effect”. In addition, the “inhibition of ovarian tumor cell migration” value in the data set on OVCA 429 cells [10] is on record as “little effect”.
For the molecule `COc1ccc2cc([C@@H](C)C(=O)O)ccc2c1` [R-naproxen], the “inhibition of Rac1 GTPase activity” value on Rac1 [2] (setting [14]) is recorded as “inhibit”; at Rac1 [2] (OvCA cell lines (429 and 433)), “inhibits”. Moreover, on Rac1 [12], the “activity against Rac1 in library screen” value is reported as “active”. For the same molecule, in the data set on COX enzymes (>25 μM, ref [22]), the “inhibition of COX enzymes” value is listed as 10-20%. Further, the “effect on tumor number versus placebo (words)” value with SKOV3ip cells [13] (10 mg/kg) was “decreased the number of implanted tumors”; with SKOV3ip cells [13] (10 mg/kg, listed as R-Naproxen) it was “reduces tumor number”. Moreover, the “reduction in tumor number” value in the data set on SKOV3ip cells [13] (10 mg/kg) is 4 fold. Besides, the “decrease in total tumor burden” value in the data set with SKOV3ip cells [13] is listed as 36%.
With `CC[C@H](C)C(=O)O[C@H]1C[C@@H](C)C=C2C=C[C@H](C)[C@H](CC[C@@H]3C[C@@H](O)CC(=O)O3)[C@H]21` [Lovastatin], the “Rho GTPase inhibition” value in the data set on Rho GTPase is reported as “inhibit Rho GTPase”. For the same molecule, the ovarian metastasis entry with ovarian metastasis is “reduce ovarian metastasis”.

Values taken from patent US12377072B2, “Modulators of GTPases and their use” (priority 2010, dated 2025).
